# The supplement of paper PMC3334620
# Over roughly 33,000 sequences, “E-score (-0.5 to 0.5)” has its median near -0.012; the highest 2% begin near 0.27. The list shows a part of the results.
# Target: T1, Vhr1 (UniProt P40522)
# T1 sequence: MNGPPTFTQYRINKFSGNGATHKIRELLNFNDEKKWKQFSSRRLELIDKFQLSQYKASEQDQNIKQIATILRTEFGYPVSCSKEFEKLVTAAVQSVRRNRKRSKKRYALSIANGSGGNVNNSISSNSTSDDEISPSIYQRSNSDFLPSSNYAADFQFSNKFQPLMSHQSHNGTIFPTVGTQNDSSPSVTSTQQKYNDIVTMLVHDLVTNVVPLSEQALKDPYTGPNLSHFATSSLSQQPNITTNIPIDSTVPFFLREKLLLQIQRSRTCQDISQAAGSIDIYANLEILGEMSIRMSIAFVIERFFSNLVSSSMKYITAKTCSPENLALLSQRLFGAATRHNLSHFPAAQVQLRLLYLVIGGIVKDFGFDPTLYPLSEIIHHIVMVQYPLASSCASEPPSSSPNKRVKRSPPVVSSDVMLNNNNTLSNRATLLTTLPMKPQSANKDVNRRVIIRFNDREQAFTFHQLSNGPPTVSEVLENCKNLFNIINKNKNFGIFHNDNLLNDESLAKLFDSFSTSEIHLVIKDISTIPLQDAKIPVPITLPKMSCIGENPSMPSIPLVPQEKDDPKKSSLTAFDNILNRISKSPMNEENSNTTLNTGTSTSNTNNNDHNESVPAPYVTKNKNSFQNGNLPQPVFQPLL
# Test: PBM E-score (8-mer binding enrichment) (E-score (-0.5 to 0.5)); higher = stronger / more preferred TF binding; most listed sequences are background and not binding sites
# Details: protein concentration: 200 nM; construct: GST-full length
# Procedure, shortened: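 PURExpress in vitro transcription/translation supplied GST-tagged yeast transcription factors, either full-length or DNA-binding domain. Applied at about 100-200 nM to universal all-10-mer Agilent arrays double-stranded by primer extension, the bound protein was detected with fluorescent anti-GST. E-scores, modified Wilcoxon-Mann-Whitney statistics, were given by the Universal PBM Analysis Suite to ungapped eight-base words pooled with their reverse complements after masliner normalisation.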
row,Sequence,PBM E-score
1,AGGCCACG,0.0465
2,TAGCGCGA,0.164
3,CGATAGTA,0.235
4,ACGGGAAC,-0.0727
5,AGAAGGAA,-0.208
6,ACGTGTTA,-0.0598
7,AGCGTTAA,-0.178
8,AGATAGCA,-0.00092
9,CTAGGCGA,-0.0182
10,GACTTTAC,0.095
11,ATTGTTCA,0.00212
12,TATACAAA,0.068
13,GTCGACAA,-0.0547
14,CCAATGAG,-0.145
15,AGCTGTCG,-0.188
16,ACAAGTTC,-0.0427
17,ACCGAGAG,0.0506
18,AACGGACC,-0.182
19,CCGAAGAG,-0.201
20,GGGCGTGA,0.297
21,GCCGCTTA,0.0714
22,AGCCAGAT,-0.0809
23,GGAACTAA,-0.14
24,AATTACGC,-0.0867
25,CTGACGGC,-0.122

row,Sequence,PBM E-score
1,AGGCAAAA,-0.128
2,ATCACAGA,0.148
3,CGCTCGCA,0.0706
4,AAAACAGA,-0.0965
5,ACTCTGTC,0.052
6,GCCACGAA,-0.125
7,ATACTTTC,-0.0068
8,CTTGATAA,0.0306
9,GTCAGCAC,0.0584
10,TAATCCAA,0.132
11,CCCCAAAC,-0.106
12,ACTCGAAG,-0.13
13,CCCTCTCA,-0.302
14,CCCGAGTA,0.184
15,ACCCCCAT,-0.147
16,ATATGTCC,0.00501
17,CTTCCTAA,-0.328
18,CCGCACTA,0.112
19,CGTGGGAG,0.0618
20,CCGAACCC,-0.0768
21,ACCCTTGA,-0.157
22,ACAATGCG,0.113
23,ACAGTGTA,0.204
24,GAGTTGCC,-0.00989
25,CCTATGAG,-0.018

row,Sequence,PBM E-score
1,AAGACGTC,-0.133
2,AGATGACG,-0.0386
3,AGAGCGAC,0.0123
4,AAAAACGC,0.0266
5,ACCTGCAG,-0.0632
6,AACTGTCA,-0.0442
7,AGTTGCGA,0.00943
8,CATCTCGC,0.0798
9,AGCTAGTC,0.197
10,CCCTCGAG,-0.0173
11,TCACGTCA,0.039
12,TTTGCAAA,-0.151
13,GTCTAGCA,0.0138
14,AGTGGGGC,0.124
15,GAAGTGCA,-0.0763
16,AAGATAAT,-0.0906
17,GCGGTCAA,-0.00367
18,CCGCGGTC,0.0321
19,GCCCTAGC,-0.121
20,CATATTTA,0.212
21,TAAAGTGA,0.164
22,ACGGTAAA,-0.285
23,ACTCCAAG,0.0874
24,CAACTAAG,-0.0982
25,GCTGCGCC,0.0437

row,Sequence,PBM E-score
1,TTACGTAA,-0.295
2,AGCCCTTC,-0.331
3,CAGCTGCA,-0.344
4,CAAGTCTC,-0.195
5,ACGTCCAC,-0.21
6,GAACCAAA,-0.0377
7,AGCATAAA,-0.161
8,AGCAGTCG,-0.0524
9,AAAGGTAT,-0.0543
10,AGCCACCC,0.175
11,ACCGAAAT,-0.139
12,CGAGCATC,-0.0984
13,AGCCGTAC,0.0737
14,AGAACGAA,-0.158
15,AGCCGACT,0.0574
16,TCTGGGCA,-0.15
17,ACAAACAG,0.0433
18,GATAAGAA,-0.259
19,TGAAGACA,-0.142
20,CGCGCCGA,0.155
21,CCCGGCCA,-0.22
22,AGAAGCAC,-0.242
23,ATCTAACG,-0.165
24,GGTGCTCA,0.0342
25,CGGACCGC,0.0237

row,Sequence,PBM E-score
1,AATCTAGA,-0.14
2,ACCTAAGC,-0.0498
3,CGGATACC,0.16
4,AGATCAGA,-0.0703
5,CGTTCTCC,-0.0491
6,AGTAGGAC,-0.0372
7,TGCCACCA,-0.0555
8,ACGTTAAG,-0.236
9,ACTGATAG,0.167
10,ACTACGCT,-0.0765
11,TGCATCCA,-0.0453
12,TCAGGGCA,-0.047
13,CTACGCCA,-0.0819
14,CCGAAGTC,0.0641
15,GCACACCC,0.139
16,GGTAAGCA,-0.0637
17,ACGGGTTG,-0.0122
18,ATGGGCGC,-0.0233
19,TCTGTTAA,-0.127
20,AAACCCCT,-0.279
21,ATTAGAAC,0.0749
22,ACATGAGA,0.273
23,AGCACGCA,-0.235
24,AACAAACA,0.0355
25,AAATTTAG,-0.069

row,Sequence,PBM E-score
1,GCCAACGA,-0.111
2,CCGGAGCG,-0.0813
3,CAACGGGC,-0.0189
4,CCTGCGTC,-0.0426
5,GATGTTCA,-0.103
6,GACGGTCC,-0.099
7,ACAAGTTG,-0.0282
8,GATTGTAA,0.0334
9,AAACGGAG,-0.109
10,CAACTTAG,0.0775
11,CTGTTATA,0.0386
12,ACGACGAG,0.0374
13,AAGCTATT,-0.185
14,CGGTAGGA,0.139
15,GACCCTGC,-0.14
16,AGGGATAA,0.101
17,GCCGCCGA,0.0775
18,ATTCACGA,0.144
19,ATTTGTTG,0.0181
20,ACTAGTCT,0.0852
21,AATGGAGA,0.0175
22,AGGCAAAG,-0.192
23,ATCTACAT,0.114
24,GGGTACGA,0.174
25,CCCACTTC,0.067

row,Sequence,PBM E-score
1,ATATCCAG,0.207
2,ATAATCCA,0.0661
3,ATAGGGAG,-0.0261
4,CCGGTCGA,-0.153
5,AAACATAA,0.206
6,TAAACATA,0.137
7,GCACCGGC,0.101
8,TACAAGTA,0.0561
9,CGTGCCGA,-0.00519
10,ATCCTACG,-0.0602
11,AGGGCGTA,-0.0697
12,CAGCTACA,0.0756
13,GCCTTGCC,-0.12
14,GACTAAGC,0.211
15,AATCTGAG,-0.122
16,CTTTAAAA,-0.189
17,GTGCCCAA,-0.0239
18,GAGTATAC,-0.0406
19,CAATACGA,0.109
20,ACGGTCTG,0.0431
21,ACCATTCG,-0.0262
22,CGTAAGTC,-0.0346
